Measurements: PubChem BioAssay AID624417 (National Center for Advancing Translational Sciences (NCATS), 2012)
Among all 410,000 compounds or so, about 6,400 (1.6%) were called active. Inconclusive results, whose numbers are uncertain, are shown with a selection of clear calls. The call rests on the fitted dose curve; in most records, active means well fitted inhibition curve with a large enough effect; inconclusive means small, poorly fitted or top-dose-only effect; inactive means no such curve, though single readings can be large or run the other way. No potency is given beside an inconclusive call; the fits are too rough.

These compounds were tested against Glucagon-like peptide 1 receptor (Homo sapiens) (UniProt P43220) (assay: qHTS of GLP-1 Receptor Inverse Agonists (Inhibition Mode)). Conditions: HEK293 GLP-1R CRE-luciferase, luminescence, 24 h, GLP-1R form is constitutively active; series mostly up to 38.3 µM.
Chain of UniProt P43220 (P43220 whole entry, looked up): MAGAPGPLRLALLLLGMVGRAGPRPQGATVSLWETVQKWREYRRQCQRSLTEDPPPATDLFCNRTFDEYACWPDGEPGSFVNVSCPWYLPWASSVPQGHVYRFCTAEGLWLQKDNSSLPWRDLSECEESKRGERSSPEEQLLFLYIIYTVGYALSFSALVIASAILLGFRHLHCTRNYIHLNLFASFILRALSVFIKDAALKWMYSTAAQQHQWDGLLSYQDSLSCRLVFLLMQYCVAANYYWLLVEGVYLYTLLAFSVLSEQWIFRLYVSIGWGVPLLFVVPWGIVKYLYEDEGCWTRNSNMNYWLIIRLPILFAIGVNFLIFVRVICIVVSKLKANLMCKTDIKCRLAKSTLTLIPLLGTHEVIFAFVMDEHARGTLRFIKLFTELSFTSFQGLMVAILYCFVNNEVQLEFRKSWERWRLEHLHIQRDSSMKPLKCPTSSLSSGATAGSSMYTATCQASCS
Summary of the method: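 Constitutively active GLP-1R drives a cAMP-responsive luciferase in stably transfected HEK293 cells; test compounds are added after overnight (12 h) attachment and left 24 hr, and signal loss in luminescence marks inhibition.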
Further: nearly all actives have a fitted effect of over 55% in size.
Potency means the concentration at half of the fitted maximal effect; tags describe the fitted curve by direction and shape.

| SMILES | Potency |
| --- | --- |
| CC(C)CC1Nc2ncnc(N3CCN(c4ccccc4)CC3)c2N(Cc2ccc(Cl)cc2)C1=O (configuration not stated) | inconclusive [inhibitor, partial curve, poor fit] |
| CN1CCN(NC(=O)Nc2ccc(Br)cc2Cl)CC1 | inconclusive [inhibitor, single point] |
| OC(COc1ccc(Cl)cc1)CN1C2=NCCCN2c2ccccc21 (configuration not stated) | inconclusive [inhibitor, single point] |
| Cc1ccc(C)c(N2CCN(C(c3ccc(N(C)C)cc3)c3nnnn3C(C)(C)C)CC2)c1 (configuration not stated) | inactive |
| Cc1ccc(NC(=O)c2nc(S(=O)(=O)Cc3ccccc3C)ncc2Cl)cc1C | inconclusive [inhibitor, single point] |
| COc1ccc(N=c2cc(-c3ccc(O)cc3)oc3ccccc23)cc1 | inconclusive [inhibitor, single point] |
| CN(C)CCCN(C(=O)COc1ccc(Cl)cc1)c1nc2ccc(F)cc2s1 | inconclusive [inhibitor, single point] |
| CCC(C(=O)N1CCN(c2cc(C)ccc2C)CC1)n1nc(C)n2c(cc3occc32)c1=O (configuration not stated) | inconclusive [inhibitor, partial curve, poor fit] |
| Cc1ccc(S(=O)(=O)N2CCc3cc(C(=O)Nc4c(F)cccc4F)ccc32)cc1 | inactive |
| CCOC(=O)c1[nH]c2ccc(OC)cc2c1NC(=O)CN1CCc2ccccc2C1 | inconclusive [inhibitor, single point] |
| CC(C)(C)N1C(=O)[C@H]2[C@@H](c3ccc(Br)cc3)N3C(=O)N(c4cccc(Br)c4)C(=O)[C@@]3(Cc3ccccc3)[C@H]2C1=O | inconclusive [inhibitor, full curve, poor fit] |
| CSc1cccc(NC(=O)Nc2ccc(Cl)cc2)c1 | inconclusive [inhibitor, partial curve] |
| CC(C)N(Cc1nc(-c2ccc(Cl)cc2)no1)C(=O)CCC1CCCC1 | active: 10 µM |
| C=CCOc1c(OC)cc(/C=N/Nc2cccc(C(=O)O)c2)c(Br)c1Br | inconclusive [inhibitor, single point] |
| Cc1ccc(Nc2cc(C)nn2-c2nc(C)cc(C)n2)cc1 | inconclusive [inhibitor, full curve, poor fit] |
| CCOc1cc(CNc2ccccc2)cc(Br)c1OCC(=O)NC(C)(C)C | inconclusive [inhibitor, partial curve, poor fit] |
| O=C(Nc1cn(-c2ccccc2)nc1-c1ccccc1)c1ccccc1 | inconclusive [inhibitor, full curve, poor fit] |
